# In PubChem BioAssay AID1476 (National Center for Advancing Translational Sciences (NCATS), 2009):
# Screen size: about 200,000 compounds; about 4,500 (2.2%) were called active. The shares of active, inactive and inconclusive entries below differ from those in the screen. The call rests on the fitted dose curve; in most records, active means well fitted inhibition curve with a large enough effect; inconclusive means small, poorly fitted or top-dose-only effect, or effect the other way; inactive means flat fitted curve, though single readings scatter. Potencies beside an inconclusive call are fits to weak or partial responses and may not hold up.
# Biological target: Cruzipain (Trypanosoma cruzi) (UniProt P25779)
# UniProt P25779, sequence (P25779 whole entry, looked up): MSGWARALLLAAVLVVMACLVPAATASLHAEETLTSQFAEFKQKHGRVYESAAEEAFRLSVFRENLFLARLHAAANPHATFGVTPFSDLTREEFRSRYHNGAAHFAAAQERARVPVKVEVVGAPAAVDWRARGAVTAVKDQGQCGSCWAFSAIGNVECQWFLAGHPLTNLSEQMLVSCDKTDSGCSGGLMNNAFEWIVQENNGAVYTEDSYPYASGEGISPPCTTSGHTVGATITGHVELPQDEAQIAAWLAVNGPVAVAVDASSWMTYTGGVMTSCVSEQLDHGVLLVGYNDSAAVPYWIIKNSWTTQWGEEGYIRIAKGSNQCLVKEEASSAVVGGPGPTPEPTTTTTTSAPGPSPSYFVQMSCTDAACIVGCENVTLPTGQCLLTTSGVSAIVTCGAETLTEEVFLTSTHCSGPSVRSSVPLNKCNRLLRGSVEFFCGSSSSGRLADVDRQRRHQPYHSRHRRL
# Test: qHTS Assay for Promiscuous and Specific Inhibitors of Cruzain (without detergent); further: nearly all actives have a fitted effect of over 40% in size;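 on max response, negative = inhibition: plate controls were enzyme without inhibitor for no effect and buffer without enzyme for full effect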
# Details: purified cruzain, Z-FR-AMC fluorescence, no detergent
# Summary of the method: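 Purified cruzain at 1.5 nM, pre-incubated 15 min with compound at room temperature in 100 mM sodium acetate pH 5.5, 5 mM DTT, 0.00005% Triton X-100. Reaction started with 2 uM Z-FR-AMC; AMC fluorescence increase over 60 s gives rate.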
# Potency means the concentration at half of the fitted maximal effect; tags describe the fitted curve by direction and shape.
Compound,"max response, negative = inhibition",Potency
CN(C(=O)c1cc2nc(-c3ccco3)cc(C(F)(F)F)n2n1)c1ccc(OC(F)(F)Cl)cc1,inactive: 0.341%,–
COC(=O)c1ccccc1NC(=O)CSc1nc2ccccc2nc1Cc1ccccc1OC,inactive: 11.5%,–
O=C(Nc1ccc(F)cc1)NC1(C(=O)NCc2ccco2)CCCCC1,–,"inconclusive: 1.26 µM [inhibitor, single point]"
CCC(C)N1C(=O)S/C(=C/c2ccc(Sc3nc4ccccc4[nH]3)o2)C1=O (stereo not drawn),–,"inconclusive: 31.6 µM [inhibitor, single point]"
Cc1cc(NC(=O)CCS(=O)(=O)c2cc3c4c(c2)CCN4C(=O)CC3)ccc1Br,inactive: 3.39%,–
CCc1ccc(CNC(=O)c2ccc(NC(=O)N3CC(C)Sc4ccccc43)cc2)cc1 (stereo not drawn),–,"inconclusive: 39.8 µM [inhibitor, single point]"
Cc1cc(C)c2c(=O)cc(C(=O)Nc3ccccc3C(F)(F)F)oc2c1,inactive: 0.636%,–
COC(=O)c1ccc2c(=O)n(CCCCCC(=O)NCc3ccc(Cl)cc3)c(=O)[nH]c2c1,inactive: -17.6%,–
CCNC(=O)[C@H]1O[C@@H](n2cnc3c(N)nc(NCCc4ccc(CCC(=O)O)cc4)nc32)[C@H](O)[C@H]1O,inactive: 6.22%,–
COc1ccc(C2CC(=O)c3cc(-c4nc(-c5ccc(Cl)cc5)c(C)s4)c(=O)[nH]c3C2)cc1 (stereo not drawn),inactive: -4.45%,–
COc1ccc(S(=O)(=O)NCC(=O)N(CC(=O)NCC2CCCO2)c2c(C)cccc2C)cc1 (stereo not drawn),–,"inconclusive: 31.6 µM [activator, single point]"
CC(C)CSc1nc2c(c(=O)[nH]c(=O)n2C)n1CCc1ccccc1,–,"inconclusive: 39.8 µM [inhibitor, single point]"
CCOC(=O)c1c(C)[nH]c(C)c1S(=O)(=O)N1CCC(C(=O)N2CCN(c3ccccc3F)CC2)CC1,–,"inconclusive: 31.6 µM [activator, single point]"
C/C(=N\N=C\c1ccccc1)c1nnn(-c2nonc2N)c1C,–,"inconclusive: 25.1 µM [inhibitor, single point]"
Cc1ccc(S(=O)(=O)/N=C2/C=C(C3C(=O)CC(C)(C)CC3=O)C(=O)c3ccccc32)cc1,inactive: -16%,–
COc1ccc(NC(=O)C(C)n2nc(-c3ccc(C)c(C)c3)ccc2=O)cc1OC (stereo not drawn),–,"inconclusive: 12.6 µM [activator, partial curve]"
NC(Cc1cc(O)c(O)cc1O)C(=O)O (stereo not drawn),inactive: 12.7%,–
CC(C)c1ccc(OCC(=O)NC(Cc2c[nH]c3ccccc23)C(=O)O)cc1 (stereo not drawn),–,"inconclusive: 39.8 µM [activator, single point]"
N#Cc1c(-c2ccccc2)c(-c2ccccc2)nn(CC(=O)NNC(=O)Nc2ccc(Cl)c(Cl)c2)c1=O,–,"inconclusive: 20 µM [inhibitor, partial curve, poor fit]"
O=C(Cc1ccccc1)N(Cc1cccnc1)c1nc2c(F)cc(F)cc2s1,–,"inconclusive: 39.8 µM [inhibitor, single point]"
N#Cc1c(N)n(CCNC(=O)c2ccccc2)c2nc3ccccc3nc12,–,"inconclusive: 39.8 µM [inhibitor, single point]"

Compound,"max response, negative = inhibition",Potency
Cc1ccc(S(=O)(=O)Cn2nnnc2C(c2ccccc2)N2CCN(c3ccccc3)CC2)cc1 (stereo not drawn),–,"inconclusive: 39.8 µM [inhibitor, single point]"
CCC(C)C(=O)OC1C2CC3=C4CC(=O)OC(c5ccoc5)[C@]4(C)CCC3[C@@](C)(C2=O)C(CC(=O)OC)C1(C)C (stereo partly drawn),–,"inconclusive: 39.8 µM [activator, single point]"
Cc1ccc(N(CC(=O)Nc2ccc(-c3nc4ccc(C)cc4s3)cc2)S(C)(=O)=O)cc1,–,"inconclusive: 25.1 µM [inhibitor, single point]"
COc1ccc(CNC(=O)c2ccc(N3CCCC3)c(NC(=O)NCc3ccc(C)cc3)c2)cc1,inactive: -2.06%,–
O=C(Nc1ccc(S(=O)(=O)N2CCc3ccccc32)cc1)c1ccc2c(c1)OCO2,–,"inconclusive: 31.6 µM [inhibitor, single point]"
O=C(c1ccc(N2C(=O)C3C4c5ccccc5C(c5ccccc54)C3C2=O)cc1)N1CCOCC1 (stereo not drawn),–,"inconclusive: 31.6 µM [activator, single point]"
O=C(COC(=O)c1c(Cl)cccc1Cl)Nc1cc(Cl)ccc1Oc1ccccc1,–,"inconclusive: 39.8 µM [inhibitor, single point]"
COc1ccc(C2NC(=O)N(C)C3=C2C(=O)N(c2cccc(Cl)c2)C3)cc1 (stereo not drawn),inactive: 12.1%,–
CCOC(=O)c1c(C)n(-c2ccc(C)cc2)c2c(C(C(C)=O)C(=O)O)c(Br)c(O)c(O)c12 (stereo not drawn),–,"inconclusive: 39.8 µM [activator, single point]"
Cc1cc(OC(C)C(=O)Nc2c(C(=O)c3ccc(F)cc3)oc3ccccc23)ccc1Cl (stereo not drawn),inactive: -8.16%,–
CC(C)(C)c1ccc(C(=O)OCCNC(=O)c2c(Cl)nc3ccccn23)cc1,–,"inconclusive: 31.6 µM [activator, single point]"
Cc1ccccc1Cn1c(CN2CCN(C(=O)c3ccco3)CC2)nc2c1c(=O)n(C)c(=O)n2C,–,"inconclusive: 39.8 µM [activator, single point]"
Cc1ccc(C)c(OCC(=O)NCCNC(=O)COc2cc(C)ccc2C)c1,–,"inconclusive: 31.6 µM [activator, single point]"
COc1ccc(Cl)cc1NC(=O)c1cc(S(=O)(=O)NC2CCCCCC2)ccc1F,inactive: -7.11%,–
C=CCn1c(SCc2cc(=O)n3ccsc3n2)nc2sc(C)c(C)c2c1=O,–,"inconclusive: 25.1 µM [activator, single point]"
CCc1cc2c(=O)c(-c3nc4ccccc4[nH]3)coc2cc1OC(=O)N1CCOCC1,–,"inconclusive: 31.6 µM [activator, single point]"
CC(=O)c1c(C)[nH]c(C(=O)CSc2nnc(-c3ccccc3)o2)c1C,–,"inconclusive: 31.6 µM [activator, single point]"
COc1ccc(OC)c(CNC(=O)c2cc3c(-c4ccc(OC)c(OC)c4)nn(C)c3s2)c1,–,"inconclusive: 7.94 µM [activator, full curve]"
COCCN1CCN(c2cc(-c3ccccc3)nc3cc(-c4cccc(F)c4)nn23)CC1,–,"inconclusive: 25.1 µM [activator, single point]"
COc1ccccc1N1CCN(C(=O)CSc2nnc3c4ccccc4n(CC(=O)O)c3n2)CC1,–,"inconclusive: 12.6 µM [activator, partial curve]"
C=CCSc1nc(N)c(C(=O)Nc2ccccc2)cc1C#N,–,"inconclusive: 39.8 µM [inhibitor, single point]"

Compound,"max response, negative = inhibition",Potency
Cc1ccc2c(c1)-c1c(ssc1=S)C(C)(C)N2C(=O)c1ccco1,–,active: 15.8 µM
Cc1ccc(S(=O)(=O)NC2c3cccc4cccc(c34)C2Sc2nc(C)cc(C)n2)cc1 (stereo not drawn),–,active: 25.1 µM
O=C1OC(C(=O)Nc2cccc(Br)c2)Cc2ccccc21 (stereo not drawn),–,"inconclusive: 39.8 µM [inhibitor, single point]"
O=C(COC(=O)C1CC(=O)N(c2nc(-c3ccccc3)cs2)C1)c1ccccc1 (stereo not drawn),–,active: 25.1 µM
CCCC[C@@H]1C[C@H]1C(NC(=O)c1cccs1)c1ccc(Cl)cc1 (stereo partly drawn),inactive: -4.05%,–
Cc1ccc(N2CCN(c3ccc(NCc4nc5ccccc5n4C)cc3)CC2)cc1,–,"inconclusive: 39.8 µM [inhibitor, single point]"
Cc1ccnc2c(N3C(=O)C4C5c6ccccc6C(c6ccccc65)C4C3=O)cccc12 (stereo not drawn),–,"inconclusive: 39.8 µM [activator, single point]"
O=C(NC[C@@H](O)CO)c1c(I)c(C(=O)NC[C@@H](O)CO)c(I)c(N(CCO)C(=O)CO)c1I,inactive: 5.45%,–
CCOC(=O)c1ccc(N2C(=O)c3[nH]nc(-c4ccc(C)cc4)c3C2c2cccc(F)c2)cc1 (stereo not drawn),–,"inconclusive: 39.8 µM [inhibitor, single point]"
Nc1c(C(=O)NCc2ccccc2)nnn1Cc1cccc(Cl)c1,inactive: -27.5%,–
C=CCN(c1cccc(C(F)(F)F)c1)S(=O)(=O)c1cccc(C(=O)OCC(=O)NC)c1,–,"inconclusive: 31.6 µM [activator, single point]"
O=C(NC(=S)Nc1nc(-c2ccccc2)cs1)c1cncc(Br)c1,–,"inconclusive: 39.8 µM [inhibitor, single point]"
Cc1ccc(C(=O)N2c3ccc(C)cc3C(C)(c3ccccc3)CC2(C)C)cc1 (stereo not drawn),–,"inconclusive: 39.8 µM [inhibitor, single point]"
CC1=N/C(=C\c2ccc([N+](=O)[O-])cc2)C(=O)N1c1ccc(Cl)cc1,–,active: 15.8 µM
CN(c1ccccc1)S(=O)(=O)c1cc(C(=O)Nc2nc3ccccc3[nH]2)ccc1Cl,–,"inconclusive: 25.1 µM [inhibitor, single point]"
O=C(c1cc2ccccc2oc1=O)N1CCN(c2ccc(Cl)cc2)CC1,inactive: 8.32%,–
Cc1cc2oc(C(=O)Nc3ccc(S(N)(=O)=O)cc3)cc(=O)c2cc1C,inactive: -12.8%,–
COc1cc(/C=N/NC(=O)COc2c(C)cc([N+](=O)[O-])cc2C)ccc1OC(=O)c1ccccc1Br,–,active: 10 µM
COc1ccccc1N1CCN(c2ncnc3c2cnn3-c2cc(Cl)ccc2C)CC1,inactive: 11.6%,–
CCOC(=O)N1CCN(C(=O)CN(c2cccc(C)c2)S(=O)(=O)c2ccccc2)CC1,–,"inconclusive: 31.6 µM [activator, single point]"
Cn1cccc1C(=O)N1CCC2(CC1)CN(c1cccc(-c3ccccc3)c1)C2,–,"inconclusive: 39.8 µM [activator, single point]"
